For assay [1], the target named is human DNMT1 RFTS domain (residues 351-597) W465A (human, UniProt P26358 351-597, W465A). Nature of the assay: ITC. For orientation: In ITC the heat of successive injections is recorded.
The target in assay [2] is human DNMT1 RFTS domain (residues 351-597) (human, UniProt P26358 351-597). Description: ITC.

The source of these data is article doi:10.1101/2020.04.27.064493 (bioRxiv, 2020).

B1: histone H3 peptide ([…]) trimethylated at K9 (peptide)
peptide: not shown
modifications: trimethyl-lysine at K9
As to B1, in assay [1], the “fold reduction of affinity against wild-type hDNMT1 RFTS” value was approximately 17 fold. In assay [2], this molecule registered a Kd of 1.3 µM.

B2: histone H3 peptide ([…]), unmodified (peptide)
peptide: not shown
Consider B2, for which, in assay [1], the “fold reduction of affinity against wild-type hDNMT1 RFTS” value is approximately 5 fold. In assay [2], this molecule displayed a Kd of 6.4 µM.

A word on the Kd: it is the constant that tells how readily two partners part at equilibrium. Read a high Kd as weaker binding.
